Self-cleavage data for 167 variants are collected here from the RNAGym collection of RNA variant scans (doi:10.7554/elife.90254).

The chains are these.
B1: LINE1-mini (parent)
chain: GGCAGAGCUCAACACAGCGUGGCAAAGUGGCUGUGGCUAGACUGCC

Read counts are not given, so values of variants with three or more changes are uncertain.

The data set covers variants of B1. The data set is described as follows: self-cleavage, relative activity (ratio to wild type); higher = more cleavage; in vitro, sequencing; the parent is a self-cleaving ribozyme.
For A12U A39C C45U, the self-cleavage turned out to be 0.09. For the variant A12G C37A C42U C46A, the self-cleavage is 0.03. For A12U C18U U20A C23G A24G, the self-cleavage is 0.38. Next, C13A A14U U20A: 0.08. Next, A12U C13U G21U: 0.21; A12G G17U G36A U38A G44C C45A: 0.26. As to A12U A24G G35C, the self-cleavage was found to be 0.01. Next, A12G G22U G40U: 0.03; C13A A16C G30U C31G: 0.04. Regarding A12U U32A G33C U34C G44A, the self-cleavage stood at 0.04. Next, A12U G17A G21U: 0.06.

Consider A12U U32C A41C U43G, for which the self-cleavage is 0.05. Next, A12U U28C A41C C45U: 0.01; A12G U32A G40A G44C: 0.06. On to C13A A25C G29U C45G, for which the self-cleavage was found to be 0.02.

A12G G19A C31U G36U: the self-cleavage was 0.06. Next, A12G U20G U32A G40U: 0.01. Next, A12G G22C G27C A39G: 0.01. As for A12U G21U U28G, the self-cleavage amounted to 0.43.

With A12U U20G C31A C42U, the self-cleavage was determined as 0.05. With A12U U20G A24G G30C G35A G36C the figure was 0.02; with A12U U38A G40U, 0.25. As to C13A A14C G21A, the self-cleavage came out at 0.07. With A12G G22A A25G G30U C42G the figure was 0; with A12U C13U G19A, 0.06; with A12U C15G U43A, 0.02. Next, A12U C15G U43C: 0.02.

As to A12U G27C C42U, the self-cleavage was 0.02. With A12U U38C U43G the figure was 0. Next, C13A A14C G19A A26U G36U: 0.15; C13A A26C U34G: 0.03. Next, A12U A14C A24G C42G: 0.01; A12U A14G A24C: 0.07; A12U G27C G29U C31U C37A: 0. As to A12G G22U G44A, the self-cleavage is 0.02.

On to A12G G19U U28C C46U, for which the self-cleavage was determined as 0.01. For A12G U32G C37G, the self-cleavage came out at 0.05. As to A12U C18A C31U G33U, the self-cleavage came out at 0.03. On to C13A A26C C31G U34G, for which the self-cleavage is 0.05. Next, A12U G17U G19C C31U: 0.08; A12G G19U G30U: 0.03. Take A12G G19U G30A: the self-cleavage was 0.01. For A12U C15U C31A, the self-cleavage came out at 0.01. With A12G U20C G29A the figure was 0.05. Next, C13A A16C C23A A25U: 0.04; A12G U20A G35A: 0.01.

Regarding C13A A24C G40A, the self-cleavage stood at 0.03. As for A12U C13G G21U G33A, the self-cleavage worked out at 0.03.

Take A12U G22C G27C G33U G40A: the self-cleavage worked out at 0.03. As to A12G U20A A25U G40A, the self-cleavage came to 0.05. Take C13A A14C C31U C45A: the self-cleavage was 0.05. With A12U U20A U43C the figure was 0.2; with C13A A14C G21A A41C, 0.03. A12U G17C G22U: the self-cleavage stood at 0.03. With A12G G21U G29A U32G the figure was 0.02; with A12U C13U U28A C45A, 0.14; with A12G G29A G40U, 0.08. Next, A12U A25U G44C C45G: 0.01.

In the case of A12U A25G U34A G35C C42A, the self-cleavage amounted to 0.03. As for A12U U20C G22A A39C, the self-cleavage is 0.07. Next, A12U A26U U34A: 0.03; A12U G22A A26G G29U: 0.08; A12G G19A G27C G29U C37A: 0.01. With A12G G27C U38A the figure was 0. Next, A12U C13A G36C: 0.03; A12G C31G A41G C46U: 0.03; A12U C37A C42G: 0.19. Regarding C13A A16G G27A U43A, the self-cleavage came to 0.02. Turning to A12G G19U A25U G29U U32G G35U A39G, the self-cleavage was 0.01. For the variant A12U A16U G17C, the self-cleavage is 0.07.

As to A12U C18U G44C, the self-cleavage was determined as 0.04. Next, A12G G33U C42A: 0.02. Next, C13A A24U C45A: 0.01.

As to C13A A14G G35A C46G, the self-cleavage is 0.08. With A12U A26G G29A U34C the figure was 0.03; with A12G G36C G40C, 0.02; with C13A A25G G27C, 0.07. For the variant A12G G19U C23A, the self-cleavage is 0.01. Consider A12U U34C U43A, for which the self-cleavage was found to be 0.04.

Turning to A12U G19C A24G U34C C42G G44U, the self-cleavage was determined as 0.03.

In the case of A12U A14C G33A, the self-cleavage stood at 0.03. Next, A12U A24C G44A: 0.03; A12G G17C U20C: 0.02.

A12U C13A G17A A26C: the self-cleavage amounted to 0.02. With C13A A14U G44U the figure was 0.07; with C13A A14G A41U, 0.13. Next, A12G U43A G44A: 0.01; A12U G19U U38A: 0.03; A12G G27A C46A: 0.06.

Consider A12G G27U C45U, for which the self-cleavage was 0.06. A12U G21A G27A: the self-cleavage came to 0.27.

Consider A12G U28A G35U A41C, for which the self-cleavage amounted to 0. Turning to A12U C13A G22C G27U, the self-cleavage came to 0.06. Next, A12U C31A C37A G40U: 0.07; A12U U28C G35C: 0.02. With A12G G17U A25U G36C the figure was 0.04. In the case of A12U U28A U38G, the self-cleavage came to 0.01. Next, A12G U20G G40U: 0.03. With C13A A16G C18A the figure was 0.03. With A12U C23A U28A U32A C37U the figure was 0; with A12U U20C C31G G36A C46U, 0.01; with A12U C31U A39G, 0.04. Turning to C13A A14U G29U C37U C42U, the self-cleavage came to 0.21. With A12U C13G C42U the figure was 0.08; with A12U G29C G35A, 0.08. With A12G G30A C31A the figure was 0.03; with C13A A14G C23A C46A, 0.03; with A12U A14C G33U U34G C45G, 0.01. For the variant A12U C15A U32G C37A, the self-cleavage came out at 0.03.

Consider A12U G27U G33C, for which the self-cleavage came out at 0.01. As to A12U C15U C18G G21A G35C C46G, the self-cleavage turned out to be 0.04. A12U U34A G36U: the self-cleavage is 0.01.

In the case of A12U G33A C37G, the self-cleavage is 0.05. In the case of A12G C31G A39G G40C U43C, the self-cleavage came out at 0.04. In the case of A12U A26C G33C G44A, the self-cleavage was determined as 0.04. For the variant A12U C13A U34G U43G, the self-cleavage amounted to 0.05.

Take A12U G30A C37G: the self-cleavage stood at 0.02. Consider A12U G30A C37A, for which the self-cleavage came to 0. Next, A12U A24C G27A A41C: 0.03. As to A12U A14G A24U G30U C31A G35C C37U C45U, the self-cleavage was found to be 0.03. With A12U G36C C42G the figure was 0; with A12U G30U C37U, 0.01. Next, A12G G33U C45U: 0.05; A12G G21U U34A C45A: 0.19; C13A A16U A26C U28G C31A: 0.06. Next, C13A A25C A41G G44A: 0.01; A12U A24U G33U: 0.05; A12U C15A G27A U28A G29A G33A: 0.04.

On to A12G G22U G27C, for which the self-cleavage is 0.02. Next, C13A A24U G40C: 0.01; A12G G27C G30C: 0.04. With C13A A14C A41G the figure was 0.07. Regarding A12G G33U A41U C42A, the self-cleavage was found to be 0.09. Next, A12U C31G U32G: 0.06; A12U G19U G21U A24U: 0.07; C13A C15A G17A G30C A39U: 0.03. With A12G G17A A41G, the self-cleavage was 0.02. As to C13A A16U U34A G40A, the self-cleavage was 0.05. Next, C13A A14G G35C: 0.16; A12G G29U C37G A39C G40C C42U G44U: 0; A12U C13U C42A: 0.05.

As to C13A A14U A25G, the self-cleavage stood at 0.23. A12G G21A G27C: the self-cleavage worked out at 0.08.

With A12G G21C A25U A26U G27U, the self-cleavage came out at 0.01.

In the case of C13A A26C G33U, the self-cleavage turned out to be 0.1.

In the case of A12U G21C C37G, the self-cleavage turned out to be 0. As for A12U G19C C37U C45U, the self-cleavage was determined as 0.01. With C13A A16G G19A G29A U34A G44C the figure was 0; with A12G G27C U32A, 0.05. As to A12U C13G G30U G33A, the self-cleavage was 0.03. Next, A12U C18A G27A U34C: 0.05. With C13A A14G C45A the figure was 0.04. With A12U G30A C37U G44A the figure was 0.02; with A12U C15U G30A, 0.08; with A12U G30U G35A, 0.15.

For C13A A14U G21C G22A C31G G40U, the self-cleavage was 0.06.

Take A12G G33A C42A: the self-cleavage came out at 0.04. With A12U G21U U32A C37G G44U the figure was 0.02; with C13A A26G C31G, 0.04. Next, A12U A24C A25G A26C C42U C46A: 0.02; A12U U34G G40A: 0.01; A12U G17U C31G G44A C45A: 0.06. On to A12U G19U C23U A25U, for which the self-cleavage amounted to 0.51. As for A12U C18U A26U, the self-cleavage stood at 0.75. With A12G G21U A24G the figure was 0; with A12G U20A C37U, 0.14; with A12U G27C U28C, 0.19.
